Assay results reported in patent US12129305B2, “Targeting CLPTM1L for treatment and prevention of cancer” (The Medical College of Wisconsin, Inc., priority 2018, dated 2024).

Legend:
[1] = kidney and liver histology and cleaved Caspase 3 IHC; type: in vivo; conditions: 10 mg/kg weekly I. P. for 35 days
[2] = system: A2780 ovarian tumor cells; test: carboplatin killing after human serum extracellular vesicles; type: cell-based; conditions: vesicles pretreated 24 hours with 200 nM 102-5; 40 μM carboplatin 4 days
Experimental: (A) Western blotting of whole-cell, apoptotic bodies, extracellular vesicles, and microvesicles isolated from Panc1 cells treated with vehicle control or 200 nM gemcitabine. (B) Relative killing (live imaging cytotoxicity) of Panc1 cells treated for 48 hours with −40 nM gemcitabine and culture supernatants from donor cells with vector control or overexpressing CLPTM1L. (C) Relative killing (live imaging cytotoxicity) of Panc1 cells treated with 0-40 nM gemcitabine and culture supernatants (1:1 mix with fresh media) (top panel) or 25 μL extracellular vesicles (EVs) (ExoQuick exosomal fraction) per mL of media (bottom) from Panc1 donor cells with vector control, CLPTM1L overexpression, or CLPTM1L ectodomain deletion mutant (CLPTM1L ALoop) overexpression. (D) Western blotting of Panc1 lysates treated as above with the indicated supernatants and/or 102-5 anti-CLPTM1L for phospho-Akt (T308) and total Akt. […]
Ultracentrifugation Protocol: One milliliter of serum was centrifuged at 2000×g, 4° C., 15 minutes on a table top centrifuge to remove debris. […] Vesicle size was measured using AMT Image Capture Engine Software Version 602.571. Protein concentration of samples was measured on a Qubit (Life Technologies). […]

[3] = system: Akt phosphorylation at threonine 308 in Panc1; test: Western blotting of Panc1 lysates for phospho-Akt (T308); type: cell-based, human; conditions: regardless of the presence of the ectodomain
Experimental: (A) Western blotting of whole-cell, apoptotic bodies, extracellular vesicles, and microvesicles isolated from Panc1 cells treated with vehicle control or 200 nM gemcitabine. (B) Relative killing (live imaging cytotoxicity) of Panc1 cells treated for 48 hours with −40 nM gemcitabine and culture supernatants from donor cells with vector control or overexpressing CLPTM1L. […]
Cells were lysed with 100 μL of 1× NP40 lysis buffer containing proteinase inhibitors, sheared 10 times with a 28-gauge needle, spun at 16,000×g for 30 minutes, normalized by protein concentration as determined by the Bradford method, and the supernatant boiled for 5 minutes. Twenty microliters of normalized lysate were resolved by SDS-PAGE on 10% acrylamide gels at 150 volts for 1 hour, transferred by iBlot dry transfer (Life Technologies), blocked for 2 hours with TBST 10% milk, incubated with primary antibodies at 1:1000 in TBST 5% milk at 4C overnight with rocking, washed 3×5 minutes with TBST, incubated with secondary anti-rabbit-HRP (Santa Cruz Biotechnology) or goat anti-human-HRP (Invitrogen MH1715) at 1:10,000 in TBST 5% milk for 2 hours with rocking, washed 5×10 minutes with TBST, and signal analyzed using a Biorad Chemidoc XRS. […] Quantitation of Western analyses of three independent cultures was done using Image J software (24).

[4] = system: Human ovarian tumor cells; test: chemoresistance conferred by conditioned supernatants; type: cell-based; conditions: supernatants pre-treated with 100 nM 102-5 overnight; 40 μM carboplatin
Source text: (A) Flow cytometry histograms of fluorescent labeling of live A549 cells with 102-5 anti-CLPTM1L primary and Alexafluor-488-conjugated secondary antibodies. (B) Relative viability (MTS) of A549 cells (vector control, or with CLPTM1L shRNA knockdown (shCLPTM1L) after exposure to cisplatin and culture supernatants from either vector control or CLPTM1L shRNA cells that were untreated or pre-treated with cisplatin (x axis). **p=0.003, ***p=0.0001. (C) Relative killing (live imaging cytotoxicity) of Panc1 pancreatic tumor cells after 24-hour treatment with 100 nM gemcitabine and 72-hour culture supernatants that were either untreated or pre-treated with 20 nM gemcitabine. (D) Relative killing by 40 μM carboplatin (live imaging cytotoxicity) of ovarian tumor cells treated with supernatants from control or 10 μM carboplatin-conditioned A2780 donor cells at 60 hours post-carboplatin treatment. Supernatants in the 102-5 groups were pre-treated with 100 nM 102-5 anti-CLPTM1L overnight. *p<0.05, **p<0.005.
Fresh media was placed on 10 cm tissue culture dishes of sub-confluent tumor cells (donor cells), which were then treated as described, carboplatin pre-treatment supernatants after 48 hours of treatment and gemcitabine pre-treatment supernatants after 72 hours of treatment. […]

[5] = system: Ovcar4 human ovarian serous adenocarcinoma cells; test: sensitization to carboplatin; type: cell-based
Source text: (B) Graphs illustrate that dose-response of carboplatin killing in human ovarian tumor cells was also shifted by treatment with human anti-CLPTM1L. Re-sensitization of MCW-SL3cis cells to cisplatin killing by 102-5 anti-CLPTM1L was synergistic as measured by (C) two-way ANOVA (p<0.05) and (D) isobole and combination index (0.65).
The dose-response of carboplatin killing in human ovarian tumor cells was also shifted by treatment with human anti-CLPTM1L (FIG. 13B). […] Like CLPTM1L induction in SL3cis (FIG. 12C), phosphorylation threonine 308 of Akt was increased in SL3cis compared to that in parental SL3 cells (FIG. 13E).

ovarian tumor cells = test: internalization into tumor cells; type: cell-based
[6] = system: pancreatic adenocarcinoma; test: syngeneic orthotopic mouse models of pancreatic adenocarcinoma; conditions: in vivo

B1: 102-5: Human anti-CRR9/CLPTM1L IgG1; heavy chain V SEQ ID NO:30, light chain V SEQ ID NO:31 (antibody, V domains shown)
VH: EVQLLESGGGLVQPGGSLRLSCAASGFSFSSYEMNWVRQAPGKGPEWISYISSGGGTIYYADSVRGRFTISRDNSNNTLYLQMNSLRPDDTAIYYCARDRGRKWLQLLFDSWGQGTLVTVSS
VL: QAVLTQPPSASGTPGQKVTISCSGSSSNIGSNTVNWYQQLPGTAPKLLIYTNNQRPSGVPDRFSGSKSGASASLAISGLQSKDEADYYCAAWDDSLNGWVFGGGTKLTVLG
modifications: Synthetic- Anti-CRR9/CLPTM1L clone 102-5 heavy chain V; Synthetic- Anti-CRR9/CLPTM1L clone 102-5 light chain V
For B1, the tissue toxicity [1] was “No tissue toxicity was evident”, the “resistance to carboplatin from serum extracellular vesicles” value [2] was “abrogated resistance to carboplatin with significantly increased killing” and the “Akt phosphorylation at threonine 308” value [3] was “decreased Akt phosphorylation at threonine 308”. The “chemoresistance conferred by conditioned supernatants” value [4] was “abrogated”, the sensitization to carboplatin [5] was “synergistically sensitized to carboplatin” and the internalization (ovarian tumor cells) was “internalized into ovarian tumor cells in a receptor-dependent fashion”. The survival [6] was “prolonged survival was observed” and the tumor size [6] was “tumor shrinkage was observed”.
